This is one part of the list. One pool of 16,384 single-stranded DNAs met each Rep nickase domain in vitro at 3 µM enzyme and 37 °C for 1 h; the strands have 90 letters, of which the middle is given. Values are log2 of uncut reads against the no-enzyme pool; the lower, the more was cut; hits are not called. Because reads are shares of a total, they shift together, so uncut sequences can rise above 0 when many others are cut.
How the values were obtained:
Assay in all cases: uncleaved DNA left, log2 of reads against the no-enzyme library (log2 ratio); higher = less cleavage (more negative = more Rep cleavage of the k-mer); sequences stand for … in CTCGTCCG…ACCGGAGA
[1] = system: T1, Rep nickase domain of Muscovy duck circovirus
T1 sequence (protein, residues 1-111, tag omitted): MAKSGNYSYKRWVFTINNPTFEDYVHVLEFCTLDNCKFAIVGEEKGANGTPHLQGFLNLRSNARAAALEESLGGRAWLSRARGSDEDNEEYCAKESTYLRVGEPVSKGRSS
Procedure: (§1)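 A pool of 90-nt single-stranded DNAs with seven random bases just before the constant AC of the nick site (name = the seven bases) was cut by 3 µM recombinant His6-SUMO-tagged Rep nickase domain (300 nM DNA, 50 mM HEPES pH 8.0, 50 mM NaCl, 1 mM MnCl2, 1 h, 37 °C, three replicates). Uncut DNA was amplified and sequenced.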

[2] = system: T2, Rep nickase domain of banana bunchy top virus
T2 sequence (protein, residues 1-94, tag omitted): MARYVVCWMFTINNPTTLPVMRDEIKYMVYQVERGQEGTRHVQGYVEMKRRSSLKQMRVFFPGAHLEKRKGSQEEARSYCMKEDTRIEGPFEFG
Procedure: as §1

[3] = system: T3, Rep nickase domain of cabbage leaf curl virus
T3 sequence (protein, residues 1-116, tag omitted): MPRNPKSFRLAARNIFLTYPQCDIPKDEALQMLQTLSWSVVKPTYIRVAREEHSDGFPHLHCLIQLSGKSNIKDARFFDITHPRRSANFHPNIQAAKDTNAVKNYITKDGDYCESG
Procedure: as §1

[4] = system: T4, Rep nickase domain of chickpea chlorotic dwarf virus
T4 sequence (protein, residues 1-124, tag omitted): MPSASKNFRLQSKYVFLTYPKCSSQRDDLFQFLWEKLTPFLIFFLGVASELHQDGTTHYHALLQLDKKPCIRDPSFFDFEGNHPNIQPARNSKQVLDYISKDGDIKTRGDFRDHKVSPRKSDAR
Procedure: as §1

[5] = system: T5, Rep nickase domain of faba bean necrotic yellows virus
T5 sequence (protein, residues 1-98, tag omitted): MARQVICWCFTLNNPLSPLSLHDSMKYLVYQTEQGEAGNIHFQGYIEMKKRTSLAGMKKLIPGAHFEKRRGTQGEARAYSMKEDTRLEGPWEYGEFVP
Procedure: as §1

[6] = system: T6, Rep nickase domain of maize striate mosaic virus
T6 sequence (protein, residues 1-117, tag omitted): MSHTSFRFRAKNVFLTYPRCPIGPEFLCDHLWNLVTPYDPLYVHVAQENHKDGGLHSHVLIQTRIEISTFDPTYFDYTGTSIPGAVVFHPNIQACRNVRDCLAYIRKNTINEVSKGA
Procedure: as §1

[7] = system: T7, Rep nickase domain of porcine circovirus 2
T7 sequence (protein, residues 2-116, tag omitted): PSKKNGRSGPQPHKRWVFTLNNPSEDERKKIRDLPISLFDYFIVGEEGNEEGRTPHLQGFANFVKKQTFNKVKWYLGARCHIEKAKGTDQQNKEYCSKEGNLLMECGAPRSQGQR
Procedure: as §1

[8] = system: T8, Rep nickase domain of tomato golden mosaic virus
T8 sequence (protein, residues 1-124, tag omitted): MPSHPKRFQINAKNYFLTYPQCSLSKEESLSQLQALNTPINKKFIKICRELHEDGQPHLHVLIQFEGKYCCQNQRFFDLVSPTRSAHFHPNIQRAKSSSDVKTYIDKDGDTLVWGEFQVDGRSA
Procedure: as §1

[9] = system: T9, Rep nickase domain of tomato yellow leaf curl virus
T9 sequence (protein, residues 1-136, tag omitted): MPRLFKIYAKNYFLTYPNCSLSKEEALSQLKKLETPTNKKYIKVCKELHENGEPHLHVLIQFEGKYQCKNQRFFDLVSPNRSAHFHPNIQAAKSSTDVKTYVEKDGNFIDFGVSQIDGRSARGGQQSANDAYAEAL
Procedure: as §1

[10] = system: T10, Rep nickase domain of wheat dwarf virus
T10 sequence (protein, residues 1-137, tag omitted): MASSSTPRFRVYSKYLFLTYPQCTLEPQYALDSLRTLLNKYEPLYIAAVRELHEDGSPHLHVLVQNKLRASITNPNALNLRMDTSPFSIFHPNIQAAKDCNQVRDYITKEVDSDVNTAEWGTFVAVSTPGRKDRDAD
Procedure: as §1

Row | Sequence | uncleaved DNA left (log2) [1] | uncleaved DNA left (log2) [2] | uncleaved DNA left (log2) [3] | uncleaved DNA left (log2) [4] | uncleaved DNA left (log2) [5] | uncleaved DNA left (log2) [6] | uncleaved DNA left (log2) [7] | uncleaved DNA left (log2) [8] | uncleaved DNA left (log2) [9] | uncleaved DNA left (log2) [10]
1 | ACACGCA | 0.0695 | -0.0246 | -0.598 | -0.938 | 0.00578 | -0.918 | 0.173 | -0.0214 | 0.00535 | -0.0455
2 | AGCTAAG | 0.0547 | 0.015 | -0.652 | -0.152 | -0.0192 | -0.988 | 0.175 | 0.00281 | 0.0688 | 0.0148
3 | AGTCGCA | -0.0628 | -0.135 | -0.176 | -0.299 | -0.0913 | -0.518 | -0.69 | -0.0401 | -0.089 | 0.0012
4 | GAGAGGT | 0.169 | 0.104 | 0.388 | 1.09 | 0.0215 | 1.43 | -1.39 | 0.14 | 0.00696 | 0.127
5 | ACACTAA | -0.0404 | -0.0281 | -0.206 | -0.602 | 0.146 | -0.791 | 0.145 | 0.0555 | -0.151 | -0.115
6 | TCGCTCA | -0.177 | -0.115 | -0.0452 | -1.07 | -0.0445 | -0.516 | -0.208 | -0.169 | 0.0122 | -0.0532
7 | GTTGCGT | -0.0394 | -0.0685 | -0.836 | 0.0468 | -0.0799 | -0.584 | -0.00952 | -0.107 | 0.00312 | -0.181
8 | AGGATGA | 0.0129 | 0.0916 | 0.289 | 0.894 | -0.0914 | 1 | 0.0339 | -0.0591 | -0.184 | -0.0303
9 | AAGAGTC | 0.0879 | 0.155 | 0.243 | 0.313 | 0.13 | 0.156 | 0.129 | 0.187 | 0.151 | 0.203
10 | CAAGGCT | -0.0702 | 0.079 | -0.101 | -0.323 | -0.0149 | 0.028 | 0.0786 | -0.0353 | -0.00904 | 0.129
11 | CCGACAG | 0.0282 | 0.0386 | -0.151 | 0.284 | 0.0465 | 0.18 | 0.0983 | 0.032 | -0.0525 | -0.0557
12 | AGCTGCG | 0.0971 | 0.118 | -0.511 | 0.841 | 0.067 | -0.105 | 0.177 | 0.0206 | 0.00463 | 0.000251
13 | GCAAGGA | 0.0179 | 0.0495 | 0.12 | 0.368 | 0.0471 | -0.0546 | 0.137 | 0.071 | -0.0469 | 0.021
14 | CTTTTTA | -0.178 | -0.0687 | -0.0942 | -1.7 | -0.00246 | -0.612 | -0.433 | 0.0411 | 0.115 | -0.166
15 | GTAGGTC | 0.199 | 0.151 | 0.577 | 1.03 | -0.00288 | 1.68 | 0.071 | 0.181 | 0.191 | 0.225
16 | GTCGCTC | -0.0119 | 0.142 | 0.528 | 1.67 | 0.0591 | 1.6 | 0.0849 | 0.145 | -0.00586 | 0.0034
17 | GCTAGGC | -0.0384 | -0.0564 | 0.218 | 0.588 | -0.039 | -0.178 | 0.0819 | -0.00349 | 0.0622 | -0.0407
18 | CTTGTGA | 0.122 | -0.0411 | -0.597 | -0.649 | 0.0657 | -1.18 | 0.154 | -0.128 | -0.00754 | -0.14
19 | CTGTACA | -0.0125 | 0.0233 | -0.0214 | -1.62 | -0.00394 | -0.503 | -0.0806 | -0.0979 | 0.0777 | 0.15
20 | CAACCGA | -0.0725 | -0.0358 | -0.377 | -1.09 | -0.04 | -0.925 | -0.0827 | -0.0306 | 0.0737 | -0.0113
21 | GGACTTG | -0.0919 | 0.0121 | 0.533 | 1.41 | 0.0918 | 1.88 | 0.183 | -0.0373 | -0.0344 | 0.119
22 | GGCTTTC | 0.022 | -0.032 | 0.523 | 1.12 | -0.162 | 1.79 | 0.0432 | -0.0211 | 0.0875 | 0.0464
23 | GCCCGAC | -0.22 | -0.358 | 0.123 | 0.311 | -0.229 | -0.04 | -0.047 | -0.154 | -0.171 | -0.226
24 | AAGCGCC | 0.0397 | 0.148 | 0.15 | 0.245 | 0.0772 | 0.508 | 0.154 | -0.000571 | -0.0604 | 0.0667
25 | ACCCACC | -0.0631 | 0.0175 | -0.0616 | -0.462 | 0.054 | -0.467 | -0.119 | 0.0528 | -0.159 | 0.0815
26 | GTCAGCA | -0.0067 | 0.147 | 0.273 | 0.626 | 0.077 | 0.857 | 0.0741 | 0.101 | 0.0185 | 0.0997
27 | CCACGAA | -0.107 | -0.113 | -0.17 | -0.296 | -0.0254 | -0.919 | -0.0467 | -0.0858 | -0.0923 | -0.133
28 | GACGCTG | 0.0114 | 0.0194 | 0.238 | 0.838 | 0.0645 | 1.44 | 0.165 | 0.0263 | -0.12 | -0.0262
29 | ACGTACA | -0.0313 | 0.026 | -0.209 | -1.3 | 0.111 | -0.562 | -0.0698 | -0.0785 | 0.017 | 0.0368
30 | GGCTGCC | -0.015 | -0.198 | 0.137 | 0.766 | -0.1 | 0.814 | 0.0853 | -0.084 | -0.107 | -0.0024

Source: the supplement of paper PMC7826260
